Results from PubChem BioAssay (EPA / NIEHS).
For part of these data: Shown are results outside the selection of hits, which stands elsewhere. Only a part is listed here, and it is no random draw. Inconclusive results are not listed. Some structures have more than one record in an assay (separate samples or runs), and their calls can disagree. The source made the active and inactive calls. The calls were made as follows, unless noted: active = hit-call score of the fitted dose curve at least 0.9, where 1 is the maximum; inactive = score below 0.9.

Columns and labels:
[1] = read-out: Monocyte Chemoattractant Protein-1 (MCP1), CCL2 (gene 6347); assay: BSK_SAg_MCP1: BioMAP Diversity Plus: SAg Assay for Monocyte Chemoattractant Protein-1 (MCP1) Biomarker Activity (AID 2283090); settings: actives raise or lower the signal; primary human HUVEC with PBMC
Outline: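 Values derive from bidirectional fitting of ELISA-measured MCP1 against DMSO controls. Readings were taken 24 h after dosing human vascular endothelial cells co-cultured with peripheral blood mononuclear cells under superantigen stimulation.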

[2] = read-out: CFLAR gene, CFLAR (gene 8837); assay: LTEA_HepaRG_CFLAR: Life Technologies and Expression Analysis (LTEA) Assay for CFLAR gene using HepaRG (AID 2283455); settings: actives raise or lower the signal; mRNA level, 48 h
Outline: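 Gain- or loss-of-signal changes in CFLAR transcript were fitted bidirectionally relative to 0.5% DMSO. Cells (HepaRG, duplicate wells) were dosed for 48 h across eight half-log concentrations topping at 100 uM; quantitation by TaqMan qRT-PCR.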

[3] = read-out: growth arrest and DNA damage 45 (GADD45A), GADD45A (gene 1647); assay: LTEA_HepaRG_GADD45A: Life Technologies and Expression Analysis (LTEA) Assay for growth arrest and DNA damage 45 (GADD45A) using HepaRG (AID 2283458); settings: actives raise or lower the signal; mRNA level, 48 h
Outline: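 GADD45A expression was measured by TaqMan qRT-PCR against three housekeeping genes (ACTB, GAPDH, POLR2A) after 48 h treatment of HepaRG cells. Eight-point half-log series up to 100 uM in 0.5% DMSO, run in duplicate.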

[4] = read-out: Bcl-2 (BAX) gene, BAX (gene 581); assay: LTEA_HepaRG_BAX: Life Technologies and Expression Analysis (LTEA) Assay for Bcl-2 (BAX) gene using HepaRG (AID 2283470); settings: actives raise or lower the signal; mRNA level, 48 h
Outline: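 Gene expression measured by Fluidigm qRT-PCR with three housekeeping genes for normalisation. HepaRG cells, plated 48 h beforehand, treated 48 h at up to 100 uM (8-point, half-log) in 0.5% DMSO. Bidirectional fitting versus DMSO.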

[5] = read-out: BCL2L11 (gene 10018); assay: LTEA_HepaRG_BCL2L11: Life Technologies and Expression Analysis (LTEA) Assay for Bcl-2 (BCL2L11) gene using HepaRG (AID 2283473); settings: actives raise or lower the signal; mRNA level, 48 h
Outline: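 Cells were plated, cultured 48 h, switched to serum-free induction medium, then dosed in duplicate for 48 h at eight half-log concentrations up to 100 uM. Lysates underwent RNA isolation and TaqMan qRT-PCR; gain or loss versus DMSO was fitted.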

[6] = read-out: MicroRNA 122 (MIR122), gene 406906; assay: LTEA_HepaRG_MIR122: Life Technologies and Expression Analysis (LTEA) Assay for MicroRNA 122 (MIR122) using HepaRG (AID 2283516); settings: actives raise or lower the signal; mRNA level, 48 h; also: the transcript read is the microRNA miR-122
Outline: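 Expression measured by microfluidic qRT-PCR with three housekeeping genes for normalisation, after 48 h treatment of HepaRG cultures. Eight concentrations (top 100 uM, half-log steps, 0.5% DMSO vehicle) in duplicate; gain or loss fitted relative to vehicle.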

[7] = read-out: X-box binding protein 1 (XBP1), XBP1 (gene 7494); assay: LTEA_HepaRG_XBP1: Life Technologies and Expression Analysis (LTEA) Assay for X-box binding protein 1 (XBP1) using HepaRG (AID 2283540); settings: actives raise or lower the signal; mRNA level, 48 h
Outline: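 Human HepaRG monolayers receive test chemical for 48 h across an eight-point half-log series starting at 100 uM. XBP1 mRNA gain or loss is scored against DMSO by qRT-PCR.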

[8] = read-out: E-selectin (Homo sapiens) (UniProt P16581); assay: BSK_SAg_Eselectin: BioMAP Diversity Plus: SAg Assay for Eselectin Biomarker Activity (AID 2283091); settings: actives raise or lower the signal; primary human HUVEC with PBMC
Chain of UniProt P16581 (P16581 whole entry, looked up): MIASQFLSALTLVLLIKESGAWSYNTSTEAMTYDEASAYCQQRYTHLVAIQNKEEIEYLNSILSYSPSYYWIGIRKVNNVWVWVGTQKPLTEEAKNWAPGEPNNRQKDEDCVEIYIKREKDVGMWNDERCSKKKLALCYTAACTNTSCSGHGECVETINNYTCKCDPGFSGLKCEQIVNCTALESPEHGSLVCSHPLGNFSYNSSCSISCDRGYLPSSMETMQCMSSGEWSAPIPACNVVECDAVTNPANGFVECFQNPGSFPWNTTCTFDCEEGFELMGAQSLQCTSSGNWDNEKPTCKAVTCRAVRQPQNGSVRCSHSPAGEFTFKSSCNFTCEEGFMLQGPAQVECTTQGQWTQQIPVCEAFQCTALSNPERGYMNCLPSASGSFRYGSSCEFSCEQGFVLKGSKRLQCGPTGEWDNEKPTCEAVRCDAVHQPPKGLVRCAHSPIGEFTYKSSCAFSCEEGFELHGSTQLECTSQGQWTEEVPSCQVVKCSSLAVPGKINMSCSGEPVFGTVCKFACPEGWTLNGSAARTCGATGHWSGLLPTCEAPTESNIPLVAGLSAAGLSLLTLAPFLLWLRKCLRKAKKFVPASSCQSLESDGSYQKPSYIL
Outline: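 Primary human endothelial cells and peripheral blood mononuclear cells were co-cultured and exposed to chemical for 24 hours. E-selectin levels were then quantified by ELISA, with bidirectional curve fitting normalised to DMSO controls.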

[9] = BSK_SAg_Proliferation: Cell Proliferation Assessment in the BioMAP Diversity Plus: SAg Assay (AID 2283095); settings: primary human HUVEC with PBMC;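 also: relative cell number as total protein by SRB absorbance in sub-confluent culture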
Outline: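 Relative cell number in the endothelial cell/PBMC co-culture was quantified at 96 h by SRB staining (0.1% SRB, 10% TCA fixation, read at 560 nm). Curves were fitted in both directions relative to DMSO baseline.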

[10] = read-out: Forkhead box O3 (FOXO3), FOXO3 (gene 2309); assay: LTEA_HepaRG_FOXO3: Life Technologies and Expression Analysis (LTEA) Assay for Forkhead box O3 (FOXO3) using HepaRG (AID 2283459); settings: actives raise or lower the signal; mRNA level, 48 h
Outline: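 Gene-expression endpoint: FOXO3 transcript level by qRT-PCR in HepaRG cultures treated 48 h with chemicals up to 100 uM (half-log, 0.5% DMSO vehicle).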

[11] = read-out: Cytochrome P450 4A22 (Homo sapiens) (UniProt Q5TCH4); assay: LTEA_HepaRG_CYP4A22: Life Technologies and Expression Analysis (LTEA) Assay for Cytochrome P450 4A22 (CYP4A22) using HepaRG (AID 2283495); settings: actives raise or lower the signal; mRNA level, 48 h
Outline: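 Cryopreserved HepaRG cells, plated and cultured 48 h, then switched to serum-free induction medium and treated 48 h (duplicates, up to 100 uM, half-log steps, 0.5% DMSO). Expression change of CYP4A22 was fitted bidirectionally against vehicle.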

[12] = read-out: Hypoxia-inducible factor 1-alpha (Homo sapiens) (UniProt Q16665); assay: LTEA_HepaRG_HIF1A: Life Technologies and Expression Analysis (LTEA) Assay for Hypoxia-inducible factor 1 (HIF1A) Trancription factor using HepaRG (AID 2283503); settings: actives raise or lower the signal; mRNA level, 48 h
Chain of UniProt Q16665 (Q16665 whole entry, looked up): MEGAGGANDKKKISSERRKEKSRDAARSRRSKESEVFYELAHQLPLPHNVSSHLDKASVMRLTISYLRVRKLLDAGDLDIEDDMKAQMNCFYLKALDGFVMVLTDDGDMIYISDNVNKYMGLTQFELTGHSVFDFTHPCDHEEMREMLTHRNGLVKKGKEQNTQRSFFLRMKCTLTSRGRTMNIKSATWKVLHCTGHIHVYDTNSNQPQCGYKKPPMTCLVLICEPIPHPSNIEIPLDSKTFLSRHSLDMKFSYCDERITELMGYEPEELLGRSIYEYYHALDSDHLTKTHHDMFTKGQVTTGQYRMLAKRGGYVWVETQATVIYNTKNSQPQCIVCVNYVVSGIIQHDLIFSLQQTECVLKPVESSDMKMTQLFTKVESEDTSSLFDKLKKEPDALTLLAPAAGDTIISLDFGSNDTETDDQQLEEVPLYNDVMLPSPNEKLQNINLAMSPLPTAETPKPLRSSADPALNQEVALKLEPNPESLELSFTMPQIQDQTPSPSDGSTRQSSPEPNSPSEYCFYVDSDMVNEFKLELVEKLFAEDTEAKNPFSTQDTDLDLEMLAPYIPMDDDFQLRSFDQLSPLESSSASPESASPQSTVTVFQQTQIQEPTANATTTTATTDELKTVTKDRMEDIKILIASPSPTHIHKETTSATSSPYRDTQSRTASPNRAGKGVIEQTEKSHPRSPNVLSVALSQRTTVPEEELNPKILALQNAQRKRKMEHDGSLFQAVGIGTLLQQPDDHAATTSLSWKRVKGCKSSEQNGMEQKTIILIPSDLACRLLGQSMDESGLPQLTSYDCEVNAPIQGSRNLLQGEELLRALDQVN
Outline: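 HIF1A transcript level read by qRT-PCR (ACTB, GAPDH, POLR2A normalization) after 48 h chemical exposure of HepaRG cultures. Eight half-log concentrations, top 100 uM, 0.5% DMSO vehicle, duplicates; bidirectional curve fit against DMSO baseline.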

[13] = read-out: Keratin 19 (KRT19), KRT19 (gene 3880); assay: LTEA_HepaRG_KRT19: Life Technologies and Expression Analysis (LTEA) Assay for Keratin 19 (KRT19) using HepaRG (AID 2283512); settings: actives raise or lower the signal; mRNA level, 48 h
Outline: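 Gene-expression endpoint in the human liver line HepaRG after 48 h exposure to up to 100 uM test chemical with 0.5% DMSO vehicle; KRT19 mRNA by qRT-PCR, analyzed bidirectionally versus DMSO.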

[14] = TOX21_p53_BLA_p4_viability: Viability Assessment in the Tox21 HCT-116 p53 Agonism Beta-lactamase Assay, Phase 4 (AID 2283597; active = hit-call score of the fitted dose curve at least 0.9, where 1 is the maximum;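 also: hits lower the luminescence signal meaning cytotoxicity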)
Outline: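 Viability is taken as cellular ATP: after 16 h compound exposure of HCT116 cells and a 2 h room-temperature CCF4-AM substrate step, CellTiter-Glo reagent is added and luminescence is measured 30 min later.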

[15] = read-out: Matrix Metallopeptidase 1 (MMP1), MMP1 (gene 4312); assay: BSK_MyoF_MMP1: BioMAP Diversity Plus: MyoF Assay for Matrix Metallopeptidase 1 (MMP1) Biomarker Activity (AID 2284268); settings: primary human lung fibroblasts
Outline: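 MMP1 measured by ELISA 24 h after dosing primary human lung fibroblasts; cytotoxicity checked in parallel cultures by sulforhodamine B total-protein staining read at 560 nm.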

Chain of Cytochrome P450 4A22 (Homo sapiens) (Q5TCH4 whole entry, looked up): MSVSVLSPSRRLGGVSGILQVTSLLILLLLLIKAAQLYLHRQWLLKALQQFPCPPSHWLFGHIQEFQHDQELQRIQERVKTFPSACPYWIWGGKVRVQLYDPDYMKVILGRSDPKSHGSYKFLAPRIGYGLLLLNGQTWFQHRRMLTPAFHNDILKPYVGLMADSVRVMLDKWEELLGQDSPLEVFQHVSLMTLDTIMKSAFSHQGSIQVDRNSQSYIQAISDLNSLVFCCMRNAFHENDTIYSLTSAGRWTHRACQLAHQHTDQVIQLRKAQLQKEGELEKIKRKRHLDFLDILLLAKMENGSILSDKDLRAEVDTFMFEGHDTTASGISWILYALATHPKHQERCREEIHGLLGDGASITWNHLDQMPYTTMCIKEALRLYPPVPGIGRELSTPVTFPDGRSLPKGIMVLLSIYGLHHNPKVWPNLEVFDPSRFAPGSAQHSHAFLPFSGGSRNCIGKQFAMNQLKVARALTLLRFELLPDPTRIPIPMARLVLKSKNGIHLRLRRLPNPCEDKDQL

COP(=O)(OC)OC(Br)C(Cl)(Cl)Br (stereo not given)
AC50 [1]: active: 30.6 µM
outcome [2]: inactive
AC50 [3]: active: 0.00316 µM
outcome [4]: inactive
outcome [5]: inactive
outcome [6]: inactive
outcome [7]: inactive

COCC(C)N(C(=O)CCl)c1c(C)csc1C (stereo not given)
outcome [8]: inactive
outcome [9]: inactive
outcome [10]: inactive
outcome [11]: inactive
outcome [12]: inactive
outcome [13]: inactive
outcome [14]: inactive
AC50 [15]: active: 14.8 µM
